Source: PubChem BioAssay AID686971 (National Center for Advancing Translational Sciences (NCATS), 2013)
Among all 360,000 compounds or so, about 7,500 (2.1%) were called active. The shares of active, inactive and inconclusive entries below differ from those in the screen. Calls follow the shape of the dose curve; as a rule, active = well fitted cell-killing curve with a large enough effect; inconclusive = small, poorly fitted or top-dose-only effect, or effect the other way, or another doubt; inactive = no such curve, though single readings can be large or run the other way. No potency is given beside an inconclusive call; the fits are too rough. Some compounds were tested as several samples or in several runs, with calls that do not always agree.

Assay: qHTS for induction of synthetic lethality in tumor cells producing 2HG: qHTS for the HT-1080-IDH1KD cell line;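 as to activity, negative = toxicity: 0% = DMSO wells and -100% = cell-free medium wells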
Conditions: HT-1080 IDH1 knockdown viability, ATP luminescence, 48 h; activity, negative = toxicity: at 46.1 µM (top of the series) unless noted
Method in brief: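 Luminescent ATP read-out (CellTiter-Glo, 10 min at room temperature) after 48 h compound exposure at 37 °C gave viability of IDH1-knockdown HT-1080 cells. Activity was normalised to DMSO and cell-free wells, then fitted as concentration-response curves.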
Potency is read from the fitted curve at half-maximal effect; tags tell the direction and shape of the fitted curve.

Structure (SMILES)	Potency	activity, negative = toxicity
Cc1occc1-c1nnc(SCC(=O)NCc2cccs2)n1-c1ccc(F)cc1	inconclusive [cytotoxic, single point]	
N=c1c2c(-c3ccccc3)c(-c3ccccc3)n(Cc3ccco3)c2ncn1CCCN1CCOCC1	active: 13 µM	
COCCCC/C(=N\OCCN)c1ccc(C(F)(F)F)cc1	active: 18.4 µM	
COc1ccc(OCc2n(CC(=O)OC3CC(C)CCC3C(C)C)c3ccccc3[n+]2C)cc1 (stereo not drawn)	active: 5.8 µM	
CCOC(=O)C(=NO)C1=CSC2=NNC(C)(C)N12	inactive	
Cc1nn(CCc2nn[nH]n2)c2nc(-c3ccc(C4CCCCC4)cc3)cc(C(F)(F)F)c12	inconclusive [cytotoxic, single point]	
COc1ccc(-c2csc(C(C)(O)c3ccc(F)c(F)c3)n2)cc1 (stereo not drawn)	inconclusive [cytotoxic, single point]	
CC1CC(C)C(=O)C(C(CC2CC(=O)NC(=O)C2)OC(=O)CC(=O)c2ccccc2)C1 (stereo not drawn)	inconclusive [cytotoxic, full curve]	
CC(=O)N/N=C/c1cc(C(C)C)cc(/C=N/NC(C)=O)c1O		inconclusive: -30.3% [cytotoxic]
COc1ccc2nc(Sc3c([N+](=O)[O-])nc(C)n3Cc3ccccc3)[nH]c2c1	active: 20.6 µM	
COc1ccc(C(CNC(=O)c2cccc(NS(=O)(=O)c3ccc(C)c(F)c3)c2)N2CCCC2)cc1 (stereo not drawn)	inconclusive [cytotoxic, partial curve]	
O=C(c1cn(-c2ccccc2)nc1-c1ccncc1)n1nnc2ccccc21	inactive	
C[C@@H]1CC=C[C@H]2[C@H]1C(=O)N(Cc1ccccc1)[C@H]2c1ccc(-c2ccc(N(C)C)cc2)cc1F	inconclusive [cytotoxic, single point]	
N#CN(CC(N)=O)c1nc(N2CCCCC2)nc(N2CCCCC2)n1	inconclusive [cytotoxic, single point]	
Cc1ccc(-c2nc3ccc(Br)cn3c2Cc2ccccc2)cc1	inconclusive [cytotoxic, partial curve]	
OC(c1ccccc1)(c1nc(-c2csc3ccccc23)cs1)C(F)(F)F (stereo not drawn)	inconclusive [cytotoxic, single point]	
O=C(COc1ccc(Br)cc1CNCCc1ccccc1)NCc1ccccc1	inconclusive [cytotoxic, single point]	
CCc1cc2c(=O)c(-c3ccc4c(c3)OCCO4)c(C)oc2cc1OS(C)(=O)=O	inconclusive [cytotoxic, single point]	
CN(Cc1ccccc1)C(=O)C1CCCN(Cc2cccc(Cl)c2)C1 (stereo not drawn)	inconclusive [cytotoxic, single point]	
CCCCCCCCC1=NCCc2c1[nH]c1ccccc21	inconclusive [cytotoxic, single point]	
Cc1cccc(C(=O)Nc2sc3c(c2C(=O)O)CCC3)c1	inconclusive [cytotoxic, partial curve]	
Cc1ccccc1-c1nc(CS(=O)(=O)CC(=O)N2CCc3ccccc32)c(C)o1	inactive	

Structure (SMILES)	Potency	activity, negative = toxicity
C[C@@H](NC(=O)c1nc[nH]c1C(=O)N[C@@H](CCCCNC(=O)OC(C)(C)C)C(=O)OC(C)(C)C)c1ccccc1	inconclusive [cytotoxic, single point]	
O=C(/C=C/c1ccccn1)c1cc(Cl)cc(Cl)c1O	inconclusive [cytotoxic, partial curve]	
O=C(CCS(=O)(=O)Cc1ccccc1)N1CCN(Cc2ccccc2)CC1	inconclusive [rising, single point]	
COc1ccc(CCNC(=O)COC(=O)C2=NNC(=O)CC2)cc1	inactive	
Oc1ccc(/C=N/Nc2ccccc2)cc1	inconclusive [cytotoxic, single point]	
Cc1ccc2nc(N3CC(=O)Nc4ccccc43)nc(-c3ccccc3)c2c1	active: 16.4 µM	
COc1ccc([N+](=O)[O-])c(OC)c1C(=O)NC(=O)Nc1c(F)c(F)c(F)c(F)c1F	inactive	
CNc1ccccc1C(C)(C)c1cc(-c2cccc(OC)c2)no1	inconclusive [cytotoxic, single point]	
CCOC(=O)C1CCN(c2nc3c(C)cccn3c(=O)c2/C=C(\C#N)S(=O)(=O)c2ccccc2)CC1	inactive	
Cc1ccc2[nH]c(C(=O)O)c(NC(=O)CN3CCN(c4cccc(C)c4C)CC3)c2c1	inconclusive [cytotoxic, single point]	
COc1ccc(C(C(=O)NCc2ccccc2)n2c(=O)c(-c3ccccc3)nc3ccccc32)cc1 (stereo not drawn)	inactive	
O=C(c1ccc(Cl)cc1Cl)N1CCC(c2nc3c(nnn3Cc3ccco3)c(=O)[nH]2)CC1	inconclusive [cytotoxic, partial curve]	
COC(=O)c1ccc(Cl)c(NS(=O)(=O)c2ccc3c(c2)OCCO3)c1	active: 4.61 µM	
COc1cccc(C2=NOC(C(=O)Nc3cc(OC)c(OC)c(OC)c3)C2)c1 (stereo not drawn)	inactive	
COc1ccccc1C(=O)N/C(=C/c1ccccc1)C(=O)Nc1ccc(C(=O)O)cc1	inactive	
O=S(=O)(c1cccc(C(F)(F)F)c1)N1c2ccccc2-n2cccc2C1c1cccnc1 (stereo not drawn)	inconclusive [cytotoxic, single point]	
CCOC(=O)/C(=C\c1cccc(O)c1)c1nc2sc(C)c(C)c2c(=O)[nH]1	inconclusive [cytotoxic, single point]	
Cc1ccc(C)c(OCC(O)CN2CCN(CCN3C(=O)c4cccc5cccc(c45)C3=O)CC2)c1 (stereo not drawn)	inconclusive [cytotoxic, single point]	
CC(NC(=O)NC1CCCCC1)C(c1cccs1)N1CCN(Cc2ccccc2)CC1 (stereo not drawn)	inactive	
CC1CCc2sc(C(=O)NCC(c3ccco3)N3CCCCC3)cc2C1 (stereo not drawn)	inconclusive [cytotoxic, single point]	
CCn1cc(C(C)NC(=O)COc2ccc(Cl)cc2C)c(C)n1 (stereo not drawn)	inconclusive [cytotoxic, single point]	
